Screen size: about 74,000 compounds; about 1,100 (1.5%) were called active. This list was built around the results that the source calls inconclusive (neither active nor inactive); the mix of calls is not that of the screen. Calls follow the shape of the dose curve; as a rule, active = well fitted inhibition curve with a large enough effect; inconclusive = small, poorly fitted or top-dose-only effect; inactive = no such curve, though single readings can be large or run the other way. Potencies of inconclusive entries are left out as doubtful fits.
target: Polyunsaturated fatty acid lipoxygenase ALOX15 (Homo sapiens) (UniProt P16050); assay: qHTS Assay for Inhibitors of 15-hLO (15-human lipoxygenase); conditions: purified 15hLO-1, xylenol orange hydroperoxide absorbance; activity change, negative = inhibition: at 57.1 µM (top of the series) unless noted; also: nearly all actives have a fitted effect of over 55% in size
Sequence of UniProt P16050 (P16050 whole entry, looked up): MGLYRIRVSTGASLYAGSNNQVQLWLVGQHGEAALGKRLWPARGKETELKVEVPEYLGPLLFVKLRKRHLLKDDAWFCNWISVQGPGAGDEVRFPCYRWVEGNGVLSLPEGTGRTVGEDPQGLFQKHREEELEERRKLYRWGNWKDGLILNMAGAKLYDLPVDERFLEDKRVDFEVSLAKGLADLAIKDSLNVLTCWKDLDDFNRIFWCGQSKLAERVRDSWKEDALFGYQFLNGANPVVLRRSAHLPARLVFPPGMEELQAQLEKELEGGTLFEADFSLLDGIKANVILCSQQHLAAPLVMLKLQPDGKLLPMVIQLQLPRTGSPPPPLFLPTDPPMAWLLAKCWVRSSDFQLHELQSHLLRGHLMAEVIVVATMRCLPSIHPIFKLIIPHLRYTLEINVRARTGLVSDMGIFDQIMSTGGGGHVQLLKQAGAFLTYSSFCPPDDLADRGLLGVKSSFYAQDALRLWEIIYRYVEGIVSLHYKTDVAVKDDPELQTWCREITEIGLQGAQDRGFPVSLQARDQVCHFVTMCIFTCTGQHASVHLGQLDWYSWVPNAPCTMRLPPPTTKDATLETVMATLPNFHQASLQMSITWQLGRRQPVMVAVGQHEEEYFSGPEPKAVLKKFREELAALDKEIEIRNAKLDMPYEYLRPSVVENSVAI
Summary of the method: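 Quantitative HTS in 25 mM Hepes pH 7.5 containing 0.01% Triton X-100: human 15hLO-1 at 40 nM, arachidonic acid at 50 uM, 6 min turnover. Product quantified via ferrous oxidation/xylenol orange, 573:405 nm absorbance ratio.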
% is scaled to controls: 0 for no effect and ±100 for the full control effect; potency is read from the fitted curve at half-maximal effect; tags tell the direction and shape of the fitted curve.

Structure (SMILES) | Potency | activity change, negative = inhibition
Cc1ccc2c(c1)CC1(CN2C)C(=O)NC(=O)N(CCC2=CCCCC2)C1=O (stereo not given) | inconclusive [inhibitor, partial curve] | –
CCOC(=O)CC(SP(=O)(OC)OC)C(=O)OCC (stereo not given) | inconclusive [inhibitor, full curve] | –
BrC1C(Br)C(Br)C(Br)C(Br)C1Br (stereo not given) | inconclusive [inhibitor, single point] | –
CN(N=O)c1cc(O)ccc1O | active: 15.8 µM | –
O=C(O)c1ccc2[nH]cc(CCCCN3CC=C(c4ccccc4)CC3)c2c1 | inconclusive [inhibitor, single point] | –
COc1ccc2c(c[n+](C)c3c4cc5c(cc4ccc23)OCO5)c1OC | inconclusive [inhibitor, single point] | –
CC(C)CCCC1(C)C=Cc2c(O)c3c(c(CCC(C)C)c2O1)OC12C(CC4CC1C(C)(C)OC2(CCC(C)C(=O)O)C4O)C3=O (stereo not given) | inconclusive [inhibitor, single point] | –
Nc1c(C(=O)Nc2ccc([As](=O)(O)O)cc2)cnc2nnnn12 | – | inactive: 10.6% [at 11.4 µM]
Cn1c(O)c(C=NCc2ccco2)c(=O)n(C)c1=O | active: 31.6 µM | –
C=CP(=O)(O)c1ccccc1 | inconclusive [inhibitor, single point] | –
COc1ccc2c(c1)CC1(CN2C)C(=O)NC(=O)N(c2ccc(F)cc2)C1=O (stereo not given) | inconclusive [inhibitor, partial curve] | –
CC(C)(C)OO | inactive | –
CC(C)(Cc1c[nH]c2ccc(Cl)cc12)NCCOc1ccccc1OCC1CC1 | active: 12.6 µM | –
CN(C)C1=NC(N(C)C)=NP(N(C)C)(N(C)C)=N1 | inconclusive [inhibitor, single point] | –
CCCN1CCC[C@@H]2Cc3[nH]ncc3C[C@H]21 | inconclusive [inhibitor, single point] | –
O=S(=O)(O)c1ccc(O)c2ncccc12.O=S(=O)(O)c1ccc(O)c2ncccc12.[Zn] | inconclusive [inhibitor, partial curve] | –
Nc1ccc(Br)cc1 | inconclusive [inhibitor, single point] | –
O=C1CS[C@@H](c2ccccc2Cl)c2cc(Cl)ccc2N1 | inconclusive [inhibitor, single point] | –
C[C@@]12CC[C@H]3[C@@H](CC=C4C[C@H](OS(=O)(=O)O)CC[C@]43C)[C@H]1CCC2=O | inactive | –
Cn1cc(C(=O)C(=O)N[C@H]2CN3CCC2CC3)c2ccccc21 | inconclusive [inhibitor, single point] | –

Structure (SMILES) | Potency | activity change, negative = inhibition
O=C1C(Cl)=C(N2CCCCCC2)C(=O)N1c1ccccc1 | active: 5.01 µM | –
C[C@H](Cc1ccc2c(c1)OC(C(=O)O)(C(=O)O)O2)NC[C@H](O)c1cccc(Cl)c1 | inconclusive [inhibitor, single point] | –
C[N+]1(C)CCN(c2ccccc2)CC1 | inconclusive [inhibitor, partial curve] | –
CC(C)(O)[C@H]1O[C@@H]2CC[C@]3(C)[C@@]4(C)c5[nH]c6ccccc6c5C[C@@H]4CC[C@]3(O)C2=CC1=O | inconclusive [inhibitor, partial curve, poor fit] | –
CCCCC/C=C\C/C=C\C/C=C\C/C=C\CCCC(=O)Nc1ccc(O)cc1 | active: 0.251 µM | –
CC(=O)Nc1nnc(SCC(=O)NCCOc2ccccc2)s1 | inconclusive [inhibitor, partial curve] | –
C[C@@]12C=CC(=O)C=C1CC[C@@H]1C2=CC[C@]2(C)[C@@H]1CC[C@H]2C(=O)CN1CCN(c2cc(N3CCCC3)nc(N3CCCC3)n2)CC1 | inconclusive [inhibitor, partial curve] | –
CC1(C)CSC(Nc2ccc(F)c(Cl)c2)=N1 | inconclusive [inhibitor, partial curve, poor fit] | –
COc1ccc(OCC(=O)N2CCN(CC3CC4C=CC3C4)CC2)cc1 (stereo not given) | inconclusive [inhibitor, single point] | –
CCC(C)(C)n1nnnc1C(c1cccs1)N1CC=C(c2ccc(F)cc2)CC1 (stereo not given) | inconclusive [inhibitor, single point] | –
Cc1cc(SCc2sc(-c3ccc(C(F)(F)F)c(F)c3)nc2C)ccc1OCC(=O)O | inconclusive [inhibitor, single point] | –
CC(C)C(C)/C=C/C(C)C1CCC2C3=CC=C4CC(O)CCC4(C)C3CCC21C (stereo not given) | inconclusive [inhibitor, single point] | –
CCOC(=O)c1c(C)n(Cc2ccco2)c2ccc(O)cc12 | inconclusive [inhibitor, single point] | –
Cc1noc(C)c1CSc1nc2cc(S(=O)(=O)N3CCOCC3)ccc2o1 | inconclusive [inhibitor, single point] | –
Fc1ccc2c(c1)nnn2C1CCN(Cc2nnnn2C2CCCCC2)CC1 | inconclusive [inhibitor, single point] | –
O=C(O)COc1ccccc1 | inconclusive [inhibitor, partial curve] | –
FC(F)(F)c1nc2ccc(SSc3ccc4nc(C(F)(F)F)[nH]c4c3)cc2[nH]1 | inconclusive [inhibitor, partial curve] | –
Nc1ncnc2c1ncn2[C@@H]1O[C@@H](COP(=O)(O)CP(=O)(O)OP(=O)(O)O)[C@H](O)[C@@H]1O | inactive | –
CC(=O)Oc1c2c(c(CC=C(C)C)c3c1C(=O)C1=CC4CC5C(C)(C)OC(C/C=C(\C)C(=O)O)(C4=O)[C@]15O3)OC(C)(CCC=C(C)C)C=C2 (stereo not given in full) | inconclusive [inhibitor, full curve] | –
CN1CC[C@@]2(C)c3cc(O)ccc3N(C)[C@@H]12 | inconclusive [inhibitor, single point] | –

Structure (SMILES) | Potency | activity change, negative = inhibition
Nc1cc(Cl)ccc1O | active: 1.58 µM | –
C=C1CC[C@H](O)C/C1=C/C=C1\CCC[C@]2(C)[C@@H]([C@H](C)CCCC(C)C)CC[C@@H]12 | active: 15.8 µM | –
O=C(Oc1cccnc1)c1ccc(Cl)cc1 | inconclusive [inhibitor, single point] | –
CN(C)C(=S)SSC(=S)N(C)C | inconclusive [inhibitor, full curve] | –
CN(C)c1ccc(N(C)C)cc1 | inconclusive [inhibitor, partial curve] | –
CCOC(=O)C(C)Oc1cc(C)cc2oc(=O)c3c(c12)CCCC3 (stereo not given) | inconclusive [inhibitor, partial curve] | –
COc1cccc(C(C#N)N2CCCCC2)c1O (stereo not given) | inconclusive [inhibitor, partial curve] | –
O=C(c1ccc(CS(=O)(=O)c2ccccc2)o1)N1CCC2(CC1)OCCO2 | inactive | –
C=CC(C)=O | inactive | –
CNCC[C@H](Oc1ccc(C(F)(F)F)cc1)c1ccccc1 | inconclusive [inhibitor, single point] | –
CCC(=O)c1cn(Cc2ccccc2C#N)c2ccccc12 | inactive | –
S=C=Nc1cccc2ccccc12 | inconclusive [inhibitor, partial curve] | –
CC(C)=CCCC1(C)C=Cc2c(O)c3c(c(CC=C(C)C)c2O1)OC12C(=CC4CC1C(C)(C)OC2(C/C=C(/C)C(=O)O)C4O)C3=O (stereo not given) | active: 20 µM | –
O=C(c1csc2c1CCCCC2)N1CCC2(CC1)OCCO2 | inactive | –
CCN1CCN(/C=N/c2nc(C)cs2)CC1 | inconclusive [inhibitor, single point] | –
COCCCNC(=O)c1c(NC(=O)c2ccco2)n(Cc2ccccc2)c2nc3ccccc3nc12 | inconclusive [inhibitor, partial curve] | –
CCN1CCN(P2(=O)C=C(c3ccccc3)OC(c3ccccc3)=C2)CC1 | inconclusive [inhibitor, partial curve] | –
CC1(C)N([O-])[N+](=O)C1(C)Br (stereo not given) | inconclusive [inhibitor, partial curve] | –
CC(=O)C1=C(O)[C@@H]2[C@@H]3c4c[nH]c5cccc(c45)C[C@@H]3C(C)(C)N2C1=O | inconclusive [inhibitor, single point] | –
Cc1ccc(OP(=O)(Oc2ccc(C)cc2)Oc2ccc(C)cc2)cc1 | inactive | –

— PubChem BioAssay AID887 (National Center for Advancing Translational Sciences (NCATS), 2007)
